Read counts are not given, so values of variants with three or more changes are uncertain.
B1: LINE1-mini (parent)
chain: GGCAGAGCUCAACACAGCGUGGCAAAGUGGCUGUGGCUAGACUGCC

Variants of: B1
Assay: self-cleavage, relative activity (ratio to wild type); higher = more cleavage; in vitro, sequencing; the parent is a self-cleaving ribozyme

Variant	self-cleavage
GGCAGAGCUCAACACACCUUGGCAAAGUGGCUGUGGGUAGACUGCC [G17C G19U C37G]	0.02
GGCAGAGCUCAACACACCUUGGCAAAGCGGCUGUGGCUAGACUGCC [G17C G19U U28C]	0.17
GGCAGAGCUCAACACAUCGUGGCAAAGUUGCUGUGGUUUGACUGCC [G17U G29U C37U A39U]	0.14
GGCAGAGCUCAACACAUCGUGGCCAAGUGGCUGUGGCUAGACUGCG [G17U A24C C46G]	0.13
GGCAGAGCUCAACACAUCGUGGCAAAGUGGUUGUAGCUAGACUGCC [G17U C31U G35A]	0.01
GGCAGAGCUCAACACACCGUGCCAAAGUGCCUGUGGCUAGACUCCC [G17C G22C G30C G44C]	0.1
GGCAGAGCUCAACACAUGGUUGCAAAGUGGCUGUGGCAAGACUUCC [G17U C18G G21U U38A G44U]	0.16
GGCAGAGCUCAACACAUCGUGGCAAGGUGGCGGUGGCUAGACUGUC [G17U A26G U32G C45U]	0.05
GGCAGAGCUCAACACAUUGUGGCAAAGUGGCUUUGUCUAGACUGCC [G17U C18U G33U G36U]	0.03
GGCAGAGCUCAACACACCGUGGCAUAGUCGCUGUAGCUAGACUGCC [G17C A25U G29C G35A]	0.02
GGCAGAGCUCAACACAUCGUGGCAACGUGGCUCUGACUUGACUGCC [G17U A26C G33C G36A A39U]	0.02
GGCAGAGCUCAACACACAUUGGCAAAGUGGCUGGGGCUAGACUGCC [G17C C18A G19U U34G]	0.05
GGCAGAGCUCAACACACCGUGGCAAUGUGGCUGUGGCUAGACUACC [G17C A26U G44A]	0.17
GGCAGAGCUCAACACACCGUGGCAAAGUUGCUGUGGCUAGCCUGCC [G17C G29U A41C]	0.02
GGCAGAGCUCAACACACCGCGGCAAAGUGGCUGUGGCUAGACUGGC [G17C U20C C45G]	0.07
GGCAGAGCUCAACACACCGUGGCAAAGUGGCUGUGGCUAGCUUGCC [G17C A41C C42U]	0.13
GGCAGAGCUCAACACACCGUGGCAAAGUGGCUGUGGCUAGACGGAC [G17C U43G C45A]	0.03
GGCAGAGCUCAACACACCGUGGCAAAGUGGCUAUGGCGAGACUGCC [G17C G33A U38G]	0.01
GGCAGAGCUCAACACACCGUUGCAAAGUGGCUGUAGUUAGACUGCU [G17C G21U G35A C37U C46U]	0.01

Variant	self-cleavage
GGCAGAGCUCAACACAUCGUGGAAAGGUGGCUGUGGUUGGAGUGCC [G17U C23A A26G C37U A39G C42G]	0.01
GGCAGAGCUCAACACACCGUGGCAAAGUGGCUCUGGCUAGAGUGCC [G17C G33C C42G]	0.01
GGCAGAGCUCAACACAUCGUGGAAAAGUGGCUGUGGCUAGACUGCA [G17U C23A C46A]	0.06
GGCAGAGCUCAACACAUAGUGGCAAAGUGGCUGUGGCUAGACUGUC [G17U C18A C45U]	0.15
GGCAGAGCUCAACACACAGUGGCAAAGUGGCUGUGGCUAGACUCCC [G17C C18A G44C]	0.06
GGCAGAGCUCAACACACCGUGGGAAAGCGGCUGUGGCUAGACUGCC [G17C C23G U28C]	0.15
GGCAGAGCUCAACACACCGUGGUAAAGUGGAUGUGGCUAGACUACC [G17C C23U C31A G44A]	0.09
GGCAGAGCUCAACACACCGUGGCAUAGUGACUGUGGCUAGACUGCC [G17C A25U G30A]	0.23
GGCAGAGCUCAACACACCGUUGCAAACUGGCUGUGGCUAGACUGAC [G17C G21U G27C C45A]	1.63
GGCAGAGCUCAACACACCGUGGCAAAGUGGCUGUGGCUAUACUGGC [G17C G40U C45G]	0.03
GGCAGAGCUCAACACAUCGUGGCAAAGUUGCUGUGGCUACACUGCC [G17U G29U G40C]	0.08
GGCAGAGCUCAACACACCGUCGCAAAGUGGCUGGGGCUAGACUGCC [G17C G21C U34G]	0.02
GGCAGAGCUCAACACAUCGUGGCAAAAUGGCUUUGGCUAGACUGCA [G17U G27A G33U C46A]	0.01
GGCAGAGCUCAACACAUCGUGGCGAUGUGGCUGUGGCUAGACUGCC [G17U A24G A26U]	0.01
GGCAGAGCUCAACACACCGUGUCAAGGUGCCUGUCACUAGACUGCC [G17C G22U A26G G30C G35C G36A]	0.02
GGCAGAGCUCAACACAUCGUGGGAAAGCUACUGUGGCUAGACUGCC [G17U C23G U28C G29U G30A]	0.17
GGCAGAGCUCAACACAUAGUGGCAAAGUGGCUGGGGCUAGACUGCC [G17U C18A U34G]	0.01
GGCAGAGCUCAACACACCGGGGUAAAGUGGUUGUGGCAAGACUGCC [G17C U20G C23U C31U U38A]	0.05
GGCAGAGCUCAACACACCGUGCCAAAGUGGCUGUGGCUACACUGCC [G17C G22C G40C]	0.02

Variant	self-cleavage
GGCAGAGCUCAACACACCGUGGCAAGAUGGCUGUGGCUAGACUGCC [G17C A26G G27A]	0.65
GGCAGAGCUCAACACACCGUCGCAAAGUGGCUGUGGCUAGACUGCA [G17C G21C C46A]	2.29
GGCAGAGCUCAACACAUCGUGGCAGAGUGGCUGAGGCUAGACUGCC [G17U A25G U34A]	0.03
GGCAGAGCUCAACACAUCGUGGGAAAGUGGCUGUGGAUAGACUGCC [G17U C23G C37A]	0.19
GGCAGAGCUCAACACAUCGUGGGAAAGUGGCUGUGGCUUGACUGCC [G17U C23G A39U]	0.07
GGCAGAGCUCAACACACCGUGGCAAAGUGGCUGUGGCUAGACUUCG [G17C G44U C46G]	0.08
GGCAGAGCUCAACACACCGUGGCAAAGUGGCUGUAACUAGACUGCC [G17C G35A G36A]	0.08
GGCAGAGCUCAACACAUCGUUGCAAAGUGGCUGGGGCUAGACUGCC [G17U G21U U34G]	0.03
GGCAGAGCUCAACACACCGUGGCAAAGUGGGUGUGGCUAGAGUGCC [G17C C31G C42G]	0.02
GGCAGAGCUCAACACACCGUGGAACAGUGGCUGUGGCUAGACUGCA [G17C C23A A25C C46A]	0.03
GGCAGAGCUCAACACACCGUGGCAUAGUGGCUGUGGCUAGACUGCU [G17C A25U C46U]	0.04
GGCAGAGCUCAACACAUCGUGGCAAAGUGGCUGUGGGUAGACUGCU [G17U C37G C46U]	0.02
GGCAGAGCUCAACACAUCGUGGCAACGUGGCUGUCGCUACACUGCC [G17U A26C G35C G40C]	0.07
GGCAGAGCUCAACACAUCGUGGUAAAGUGGCUGUGGCUAGACUGCG [G17U C23U C46G]	0.05
GGCAGAGCUCAACACAUCGUGGCAUAGUGGCUGUGGCUAGAUUGCC [G17U A25U C42U]	0.05
GGCAGAGCUCAACACAUCGUGGCAAAGUUGCUGCGCCUAGACUCCC [G17U G29U U34C G36C G44C]	0.01
GGCAGAGCUCAACACAUCGUGGCAGAGUGGCUUUGGCUAGACUGCC [G17U A25G G33U]	0.07
GGCAGAGCUCAACACAUAGUGGCAAAUUGGCUGUGGCUAUACUGCC [G17U C18A G27U G40U]	0.12

From the RNAGym collection of RNA variant scans (doi:10.7554/elife.90254)
